# In paper PMC6919601, “Identification of Plasmodium dipeptidyl aminopeptidase allosteric inhibitors by high throughput screening” (PLoS ONE, 2019):
# The whole screen tested about 110,000 compounds, of which about 230 (0.21%) showed an effect of 50% or more. The list shows a part of the results.
# Molecular target: DPAP1 (Plasmodium falciparum, UniProt Q8IIJ9)
# Assay: primary screen, percent inhibition; read by cleavage of a fluorogenic dipeptide substrate; higher = more effect of the substance
# Set-up: species or system P. falciparum D10 trophozoite lysates; single well
# 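Further: 30 min substrate incubation versus DMSO and 10 µM JCP410 controls.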
# Sequence of DPAP1 (Q8IIJ9 whole entry, looked up): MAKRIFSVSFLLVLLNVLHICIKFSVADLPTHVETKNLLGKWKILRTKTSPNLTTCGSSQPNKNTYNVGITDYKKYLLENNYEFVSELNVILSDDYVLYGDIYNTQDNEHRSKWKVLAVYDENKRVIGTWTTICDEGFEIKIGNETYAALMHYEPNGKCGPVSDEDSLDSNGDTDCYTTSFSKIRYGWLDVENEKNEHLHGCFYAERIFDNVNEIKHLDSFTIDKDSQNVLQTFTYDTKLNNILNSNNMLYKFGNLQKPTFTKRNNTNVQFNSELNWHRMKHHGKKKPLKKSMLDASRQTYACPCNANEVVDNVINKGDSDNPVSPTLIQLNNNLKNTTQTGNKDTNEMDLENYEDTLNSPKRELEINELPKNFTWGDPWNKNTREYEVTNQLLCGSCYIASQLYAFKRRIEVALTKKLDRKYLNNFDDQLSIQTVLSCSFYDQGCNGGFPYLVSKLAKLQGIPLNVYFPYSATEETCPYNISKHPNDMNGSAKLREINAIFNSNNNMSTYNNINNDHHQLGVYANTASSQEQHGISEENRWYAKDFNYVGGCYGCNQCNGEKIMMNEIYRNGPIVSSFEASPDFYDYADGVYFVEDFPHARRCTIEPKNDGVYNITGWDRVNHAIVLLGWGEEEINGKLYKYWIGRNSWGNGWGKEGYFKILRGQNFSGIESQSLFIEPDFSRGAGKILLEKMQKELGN
row,SMILES,% Inhibition @ 10 uM [%]
1,CCC(C(=O)NCCCN1CC(C)CC(C)C1)n1c2ccccc2c2cnnc(O)c21 (stereo not drawn),-0.281
2,CCOc1ccccc1-n1c(C)cc(/C=C2\C(=N)N3N=C(N4CCOCC4)SC3=NC2=O)c1C,4.88
3,CCCNCc1ccc(C(=O)O)s1,-4.38
4,COc1cc(/C=C2/C(=N)N3OC(C)=CC3=NC2=O)cc(Cl)c1OCc1ccc2c(c1)OCO2,-3.23
5,COc1ccc(NC(=O)C2CCN(S(=O)(=O)c3ccccc3)CC2)c(OC)c1,6.63
6,CCN(CC)CCCNC(=O)C1CCN(C(=O)c2ccc(-n3ccc4ccccc43)s2)CC1,1.44
7,Cc1ccc(NC(=O)c2ccccc2F)c(NC(=O)c2ccccc2F)c1,0.727
8,CCC(C)NC(=O)CN(CCc1ccccc1)S(=O)(=O)c1ccc(Br)cc1 (stereo not drawn),20.7
9,CCOC(=O)C1=C(N)OC(C)=C(C(C)=O)C12C(=O)Nc1ccccc12 (stereo not drawn),-5.28
10,Cc1nc2c(c3c1[nH]c1ccccc13)C(=O)CC(C)(C)C2,3.83
11,COc1ccc(S(=O)(=O)NCC2CCC(C(=O)NCc3ccc(Cl)cc3)CC2)cc1 (stereo not drawn),-10.3
12,O=C1C2(Cc3ccccc3)CN3CN(C2)CC1(Cc1ccccc1)C3,0.774
13,O=C(/C=C\c1ccccc1)Nc1c2c(nn1-c1ccc(Cl)cc1)CS(=O)(=O)C2,-0.349
14,Cc1ccc(S(=O)(=O)NCCC(=O)NCc2ccccc2Cl)cc1,-9.73
15,CCOC(=O)c1sc(NC(=O)COc2ccc(C(C)(C)C)cc2)c(C(=O)OCC)c1C,-0.769
16,CCN(Cc1ccccc1)C(=O)CSc1nc(C)c(Cl)c(C)c1C#N,-2.5
17,CCCCCn1c(CNC(=O)COC)nc2ccccc21,-1.73
18,CCOC(=O)c1c(C)oc2ncnc(N3CCN(C(=O)OCC)CC3)c12,1.08
19,COc1cc(C2C(C#N)=C(N)OC3=C2C(=O)CC(C)(C)C3)ccc1OCc1ccc(C)cc1 (stereo not drawn),5.49
20,CCO/C(O)=C1/C(C)=NC2=C(C(=O)CC(c3ccccc3)C2)C1c1cccnc1 (stereo not drawn),1.67
21,COc1ccc(Nc2oc(COc3cccc(C)c3)nc2C#N)cc1,2.01
22,Cc1cccc(N2CC(=O)NC2=O)c1,2.78
23,CCn1cc(C2=NCC(C)O2)c2ccccc21 (stereo not drawn),2.9
24,CCOC(=O)c1c(C)oc2cc(Cl)c(O)c(CN(C)C)c12,-1.26
25,CCc1ccccc1NC(=O)c1cccc(C)c1,-0.197
26,COc1ccccc1OCc1ccc(C(=O)N2N=C(C)CC2(O)C(F)(F)F)cc1 (stereo not drawn),0.389
27,COc1cc(C=O)cc(Br)c1OCc1ccccc1Br,0.503
